Laboratory results from the supplement of paper PMC6206098.
± gives the uncertainty stated by the source. The sequences are guide strands of siRNAs; only the seed at positions 2 to 7 varies.

How the values were obtained:
H460 = test: cell viability relative to lipid-only control; higher = less toxic; conditions: concentration: 10 nM; 96 h; Homo sapiens
Experimental: (§1)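 Arrayed screen of 4096 siRNA duplexes, each carrying one of all possible 6mer seeds at guide-strand positions 2-7 in a fixed neutral 19mer scaffold (constant flanks: U at position 1, then ACAUGUAAACCA, plus a 3' AA overhang). The passenger strand is 2'-O-methylated at positions 1-2 so only the guide strand loads into RISC. Duplexes were reverse-transfected at 10 nM with RNAiMAX in triplicate in 384-well plates; viability was read by CellTiter-Glo ATP content 96 h after transfection. Values are % viability normalised to lipid-only wells (HeyA8, H460, M565) or to siNT1 (3LL).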

HeyA8 = test: as above; conditions: concentration: 10 nM; 96 h; Homo sapiens
Experimental: as §1

M565 = test: as above; conditions: concentration: 10 nM; 96 h; Mus musculus
Experimental: as §1

3LL = test: cell viability relative to siNT1 control; HeyA8 human ovarian and H460 human lung cancer; M565 mouse liver and 3LL mouse lung cancer; siNT1 is a non-toxic control siRNA; higher = less toxic; conditions: concentration: 10 nM; 96 h; Mus musculus
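Throughout, for cell viability relative to lipid-only control: reverse lipid transfection in 384-well plates, in triplicate, of duplexes on a non-toxic 19mer backbone with passenger strand 2′-O-methylated at positions 1 and 2, luminescence viability read-out.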
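Throughout, for cell viability relative to siNT1 control: Luminescence-based viability of cells reverse transfected in 384-well plates with lipid-complexed siRNAs built on a non-toxic 19mer backbone whose passenger strand carries 2′-O-methyl groups at positions 1 and 2, triplicates.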

Sequence	cell viability (H460) [%]	cell viability (HeyA8) [%]	cell viability (M565) [%]	cell viability (3LL) [%]
UGUCAGGACAUGUAAACCAAA	38 ± 2.1	76.4 ± 7.9	13.6 ± 2.1	15.5 ± 2.3
UCGCCACACAUGUAAACCAAA	73.5 ± 7.3	68.5 ± 2.8	57.3 ± 8.6	77.4 ± 12
UGAGUUAACAUGUAAACCAAA	85.3 ± 21	79.6 ± 6	42.3 ± 5.2	95.2 ± 17
UUAACCGACAUGUAAACCAAA	92.3 ± 23	98.9 ± 11	104 ± 16	92.8 ± 8.5
UCCGGUCACAUGUAAACCAAA	31.8 ± 4.8	13.6 ± 1.5	42.7 ± 13	56.6 ± 12
UGACCUUACAUGUAAACCAAA	25 ± 1.8	18.5 ± 0.52	13.6 ± 2.8	30.9 ± 0.61
UUGAUCAACAUGUAAACCAAA	63.2 ± 8.8	71.8 ± 9.7	92.7 ± 2.3	92.4 ± 9.4
UGUGUACACAUGUAAACCAAA	49.3 ± 4.7	43.5 ± 2.1	23.4 ± 0.3	45.6 ± 8.1
UUUAAUAACAUGUAAACCAAA	86.2 ± 4.5	96.3 ± 9.7	81.6 ± 8.3	95.4 ± 3.1
UGGUCGUACAUGUAAACCAAA	21.1 ± 3.2	31.4 ± 1.8	58.9 ± 11	64.4 ± 4.5
UUACAGAACAUGUAAACCAAA	90.3 ± 8.3	87.3 ± 4.2	49.6 ± 8.2	40.2 ± 6.1
UCUGUCUACAUGUAAACCAAA	52.3 ± 4	71.1 ± 3	43 ± 17	95.8 ± 14
UGCAAUCACAUGUAAACCAAA	59.6 ± 8.4	50.2 ± 3.1	51.5 ± 3.2	61 ± 1.7
UUUCGUGACAUGUAAACCAAA	72.7 ± 5.4	101 ± 4.2	84.4 ± 5.3	101 ± 4.7
UAAAUAAACAUGUAAACCAAA	68 ± 4.4	95.1 ± 5.2	88.7 ± 21	113 ± 16
UGCAAUAACAUGUAAACCAAA	72.4 ± 6.1	74.2 ± 23	98.9 ± 11	82.7 ± 17
UGAUGUCACAUGUAAACCAAA	57.8 ± 13	15.7 ± 1.4	27.6 ± 5.7	45.5 ± 11
UGUCUGGACAUGUAAACCAAA	21.8 ± 2.2	7.07 ± 1.7	5.38 ± 1.5	11.4 ± 1.3
UUCCUUGACAUGUAAACCAAA	83.4 ± 6.7	88.5 ± 14	104 ± 9.1	92.9 ± 16

Sequence	cell viability (H460) [%]	cell viability (HeyA8) [%]	cell viability (M565) [%]	cell viability (3LL) [%]
UUUAACGACAUGUAAACCAAA	86.7 ± 7.4	102 ± 7	91.4 ± 12	108 ± 12
UAUCGUGACAUGUAAACCAAA	91.2 ± 11	88.7 ± 6.2	73.1 ± 18	114 ± 17
UCCGAAGACAUGUAAACCAAA	94.1 ± 12	85.9 ± 3.6	92.2 ± 7.2	105 ± 17
UACCUAGACAUGUAAACCAAA	43.5 ± 4.2	25.6 ± 4	68.2 ± 17	76.9 ± 4.8
UUUACGUACAUGUAAACCAAA	91.8 ± 13	92.5 ± 4.1	57.2 ± 10	94.4 ± 6.6
UCGUGUGACAUGUAAACCAAA	76.7 ± 10	84.8 ± 5.8	54.6 ± 1.7	89.6 ± 11
UGGGAACACAUGUAAACCAAA	64 ± 8.1	70.7 ± 6.8	64.5 ± 9.2	90.6 ± 18
UGCGGUGACAUGUAAACCAAA	23.9 ± 1.1	15.9 ± 1.8	33.8 ± 7.8	73.8 ± 13
UGCAUUCACAUGUAAACCAAA	63.9 ± 4.1	59.8 ± 13	83.4 ± 11	89.4 ± 16
UCGUUCUACAUGUAAACCAAA	53.3 ± 1.7	19.5 ± 0.12	16.9 ± 2.4	35.7 ± 8.9
UCAACCUACAUGUAAACCAAA	60.3 ± 0.68	79.7 ± 7.6	51.9 ± 13	84.2 ± 18
UAAGCUUACAUGUAAACCAAA	100 ± 26	81 ± 12	62.6 ± 10	80 ± 10
UUCCGCGACAUGUAAACCAAA	83.9 ± 13	93.4 ± 10	84 ± 8	93.2 ± 9.1
UGAUUCAACAUGUAAACCAAA	40.4 ± 1.6	37.7 ± 7.2	13.8 ± 1.8	41 ± 2.8
UGAUCACACAUGUAAACCAAA	45.1 ± 12	34.1 ± 4.4	20.1 ± 7.6	44.1 ± 18
UACCCAGACAUGUAAACCAAA	71.4 ± 8.4	51.7 ± 2.2	24.6 ± 1.7	52.9 ± 8.5
UGGAGCAACAUGUAAACCAAA	23.1 ± 1.3	20.4 ± 0.3	6.15 ± 2.4	13.8 ± 4.1
UCCAGCUACAUGUAAACCAAA	60.6 ± 14	65.2 ± 6.4	34.3 ± 13	34.4 ± 5.4
UCCGAUAACAUGUAAACCAAA	67.8 ± 19	86.8 ± 5.6	64.6 ± 13	102 ± 4.6

Sequence	cell viability (H460) [%]	cell viability (HeyA8) [%]	cell viability (M565) [%]	cell viability (3LL) [%]
UAAAUUGACAUGUAAACCAAA	76 ± 9.3	101 ± 4.3	97.3 ± 17	118 ± 16
UCCCGUCACAUGUAAACCAAA	46 ± 7.6	20.4 ± 4.4	20 ± 2.6	65.3 ± 11
UCUUCGUACAUGUAAACCAAA	75.4 ± 7.9	74.7 ± 6.1	63.4 ± 5	104 ± 12
UUCAGCAACAUGUAAACCAAA	56.4 ± 4.8	78 ± 13	84 ± 10	67.7 ± 19
UUGGAGGACAUGUAAACCAAA	18.7 ± 4.9	28 ± 4.2	14 ± 5.1	38.1 ± 7.2
UAGAUGAACAUGUAAACCAAA	91.7 ± 20	78.9 ± 8.3	55.3 ± 7.8	84.9 ± 9.5
UACGUUGACAUGUAAACCAAA	75.4 ± 13	80 ± 3.6	57.1 ± 16	94.6 ± 17
UAGAAGGACAUGUAAACCAAA	59.2 ± 3.4	44.6 ± 3.6	94.4 ± 14	90.7 ± 7.9
UCACGGAACAUGUAAACCAAA	30.5 ± 4.6	86.7 ± 11	62.3 ± 8.6	99.6 ± 12
UCCAACUACAUGUAAACCAAA	46 ± 2.1	10 ± 1.7	14.4 ± 0.37	22.1 ± 4.1
UUACUACACAUGUAAACCAAA	67 ± 7.5	75.4 ± 7.2	63.4 ± 16	67.7 ± 7.1
UCCACGCACAUGUAAACCAAA	56 ± 3.8	75.6 ± 7.3	21.3 ± 3.6	65.9 ± 20
UAUUUCGACAUGUAAACCAAA	88.3 ± 13	95.3 ± 14	86.9 ± 5.3	98.4 ± 21
UUCACUCACAUGUAAACCAAA	33.9 ± 5.7	73.3 ± 4.1	77.1 ± 15	29.1 ± 2.2
UCUAGAAACAUGUAAACCAAA	63.8 ± 6.5	83.4 ± 8.6	75.3 ± 13	98.7 ± 15
UAGACCAACAUGUAAACCAAA	97.8 ± 18	88.7 ± 7.2	59.8 ± 5.7	78.4 ± 2.9
UGUUUGGACAUGUAAACCAAA	81.3 ± 10	57.9 ± 9	109 ± 22	80.6 ± 2.8
UUAAAUGACAUGUAAACCAAA	67.8 ± 10	93.3 ± 6.1	85.6 ± 17	101 ± 13
UGGUCCUACAUGUAAACCAAA	21.7 ± 3.4	13.3 ± 1.7	22.8 ± 4.8	38.6 ± 2.7
